Measurements published in PubChem BioAssay (Tox21).
“And” between values parts separate entries of the source, which are not always exact repeats. Equal entries are not always repeated. The shares of active, inactive and inconclusive entries below differ from those in the screen. For some of these results: A potency beside an inconclusive call is a rough fit, not a confirmed value. The source made the active and inactive calls. Unless noted, the call rests on the fitted dose curve.

Tests used:
[1] = target: Peroxisome proliferator-activated receptor gamma (Homo sapiens) (UniProt P37231); experiment: qHTS assay to identify small molecule agonists of the peroxisome proliferator-activated receptor gamma (PPARg) signaling pathway (AID 743094; active means well fitted activation curve with a large enough effect in the signal ratio in the repeat runs, not every such curve was filed as active; inconclusive means weak or mixed curves, or effect the other way; inactive means no such curve, though single readings can be large or run the other way; the % refers to the signal ratio; further: potency means the concentration at half of the fitted maximal effect); conditions: HEK293H PPARg-UAS-bla, beta-lactamase FRET ratio, 17 h; activation: at 57 µM (top of the series) unless noted
Chain of UniProt P37231 (P37231 whole entry, looked up): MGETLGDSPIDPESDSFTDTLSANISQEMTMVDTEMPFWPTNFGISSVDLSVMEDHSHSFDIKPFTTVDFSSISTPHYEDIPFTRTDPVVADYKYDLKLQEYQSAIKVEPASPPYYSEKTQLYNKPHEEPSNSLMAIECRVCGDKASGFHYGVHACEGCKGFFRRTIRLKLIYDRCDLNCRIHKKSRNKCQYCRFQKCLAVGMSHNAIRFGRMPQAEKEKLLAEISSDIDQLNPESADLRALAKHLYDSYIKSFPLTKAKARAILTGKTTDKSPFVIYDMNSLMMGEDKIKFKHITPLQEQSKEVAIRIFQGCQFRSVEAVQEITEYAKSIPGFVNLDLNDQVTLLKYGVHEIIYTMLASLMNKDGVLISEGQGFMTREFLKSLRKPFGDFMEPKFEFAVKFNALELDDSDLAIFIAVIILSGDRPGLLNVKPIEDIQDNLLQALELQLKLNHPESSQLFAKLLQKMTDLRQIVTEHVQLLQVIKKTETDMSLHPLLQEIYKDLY
How it was run: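 Following 5 h plating at 37C, PPARg-bla HEK293H cells receive compound or DMSO for 17 h; fluorescence intensity is recorded after LiveBLAzer B/G loading for 1 h at room temperature.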

[2] = target: Peroxisome proliferator-activated receptor gamma (Homo sapiens) (UniProt P37231); experiment: qHTS assay to identify small molecule antagonists of the peroxisome proliferator-activated receptor gamma (PPARg) signaling pathway (AID 743191); conditions: HEK293H PPARg-UAS-bla, beta-lactamase ratio, antagonist, 17 h; further: nearly all actives have a fitted effect of over 30% in size; further: potency means the concentration at half of the fitted maximal effect; on ratio activity, negative = inhibition: on the % scale 0 is the no-effect control and ±100 the full control effect
How it was run: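 Beta-lactamase reporter under UAS control in HEK293H PPARg-bla cells; compound treatment 17 h at 37C. Read-out: fluorescence intensity after 1 h room-temperature incubation with LiveBLAzer B/G FRET substrate.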

[3] = qHTS assay to identify small molecule antagonists of the peroxisome proliferator-activated receptor gamma (PPARg) signaling pathway - cell viability counter screen (AID 743194; active means well fitted curve in the direction sought with a large enough effect in the repeat runs; inconclusive means weak or mixed curves; inactive means no such curve, though single readings can be large; an effect the other way counts as inactive or inconclusive; further: potency means the concentration at half of the fitted maximal effect; nearly all actives have a fitted effect of over 55% in size); conditions: PPARg-bla HEK293H viability, CellTiter-Glo luminescence, 17 h, co-treated with 50 nM rosiglitazone; activity change, negative = cytotoxicity: at 62.6 µM (top of the series)
How it was run: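 Viability was measured as CellTiter-Glo luminescence in GeneBLAzer PPARg UAS-bla HEK293H cells. These cells had been exposed 17 h at 37 C to compounds together with rosiglitazone at 50 nM final, with the beta-lactamase readout taken in the same wells.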

[4] = qHTS assay for small molecule agonists of the antioxidant response element (ARE) signaling pathway - cell viability counter screen (AID 743203); conditions: ARE-bla HepG2 viability, CellTiter-Glo luminescence, 16 h; viability change, negative = cytotoxic: at 73.3 µM (top of the series); further: potency means the concentration at half of the fitted maximal effect; nearly all actives have a fitted effect of over 55% in size
How it was run: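 Compounds in DMSO were pinned onto ARE-bla HepG2 cells plated 5 hrs earlier at 2,000 cells/well. Sixteen hours later at 37C/5% CO2, CellTiter-Glo was added and luminescence measured after 30 min at room temperature.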

[5] = qHTS assay for small molecule activators of the heat shock response signaling pathway - cell viability counter screen (AID 743209; active means well fitted curve in the direction sought with a large enough effect in the repeat runs; inconclusive means weak or mixed curves; inactive means no such curve, though single readings can be large; an effect the other way counts as inactive or inconclusive; further: potency means the concentration at half of the fitted maximal effect; nearly all actives have a fitted effect of over 50% in size); conditions: HSE-bla HeLa viability, CellTiter-Glo luminescence, 5 h; activity change, negative = cytotoxicity: at 62.6 µM (top of the series)
How it was run: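 Counter screen for cytotoxicity in HeLa HSE-bla reporter cells. Treatment was 5 h at 37 C; viability was detected by luminescent ATP assay (CellTiter-Glo) in the same wells as the beta-lactamase read.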

[6] = qHTS assay to identify small molecule antagonists of the peroxisome proliferator-activated receptor delta (PPARd) signaling pathway - cell viability counter screen (AID 743213; active means well fitted curve in the direction sought with a large enough effect in the repeat runs; inconclusive means weak or mixed curves; inactive means no such curve, though single readings can be large; an effect the other way counts as inactive or inconclusive; further: potency means the concentration at half of the fitted maximal effect; nearly all actives have a fitted effect of over 50% in size); conditions: PPARd-bla HEK293H viability, CellTiter-Glo luminescence, 17 h; viability change, negative = cytotoxic: at 62 µM (top of the series) unless noted
How it was run: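 Cytotoxicity counter screen: CellTiter-Glo luminescence read 30 min after addition, in the same wells as the reporter assay. There, PPARd UAS-bla HEK293H cells (3000/well) were treated 17 h at 37 C with compound and 300 nM L165041.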

[7] = target: Bile acid receptor (Homo sapiens) (UniProt Q96RI1); experiment: qHTS assay to identify small molecule antagonists of the farnesoid-X-receptor (FXR) signaling pathway (AID 743217; active means well fitted inhibition curve with a large enough effect in the signal ratio in the repeat runs, not every such curve was filed as active; inconclusive means weak or mixed curves, or effect the other way; inactive means no such curve, though single readings can be large or run the other way; the % refers to the signal ratio; further: potency means the concentration at half of the fitted maximal effect; on activity change, negative = inhibition: on the % scale 0 is the no-effect control and ±100 the full control effect); conditions: HEK293T FXR-UAS-bla, beta-lactamase ratio, CDCA-stimulated, 16 h
Chain of UniProt Q96RI1 (Q96RI1 whole entry, looked up): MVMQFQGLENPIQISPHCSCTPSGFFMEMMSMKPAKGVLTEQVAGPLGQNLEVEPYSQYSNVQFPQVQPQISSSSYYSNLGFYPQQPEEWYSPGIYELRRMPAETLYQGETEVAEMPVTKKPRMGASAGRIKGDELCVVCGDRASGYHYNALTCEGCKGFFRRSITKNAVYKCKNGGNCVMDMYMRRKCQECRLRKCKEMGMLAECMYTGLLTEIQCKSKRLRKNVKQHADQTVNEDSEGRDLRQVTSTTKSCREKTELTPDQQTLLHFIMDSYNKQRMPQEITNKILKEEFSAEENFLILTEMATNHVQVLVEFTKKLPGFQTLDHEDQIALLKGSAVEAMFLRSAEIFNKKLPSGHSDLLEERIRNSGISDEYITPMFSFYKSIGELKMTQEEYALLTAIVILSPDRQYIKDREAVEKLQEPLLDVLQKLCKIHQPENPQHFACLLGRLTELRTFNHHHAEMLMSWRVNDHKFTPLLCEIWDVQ
How it was run: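 In this cell-based antagonist screen, inhibition of CDCA-driven (50 uM final) UAS-beta-lactamase expression in HEK 293T cells was measured by FRET fluorescence following 16 h compound exposure at 37 °C.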

[8] = qHTS assay to identify small molecule agonists of the farnesoid-X-receptor (FXR) signaling pathway - cell viability counter screen (AID 743218; active means well fitted curve in the direction sought with a large enough effect in the repeat runs; inconclusive means weak or mixed curves; inactive means no such curve, though single readings can be large; an effect the other way counts as inactive or inconclusive; further: potency means the concentration at half of the fitted maximal effect; nearly all actives have a fitted effect of over 45% in size); conditions: FXR-bla HEK293T viability, CellTiter-Glo luminescence, 16 h; viability change, negative = cytotoxic: at 62.6 µM (top of the series) unless noted
How it was run: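 After 16 h at 37 C with test compounds, FXR-bla HEK 293T cells were given LiveBLAzer B/G substrate for 2 h at RT and then CellTiter-Glo; luminescence was taken after 30 min.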

[9] = qHTS assay to identify small molecule antagonists of the farnesoid-X-receptor (FXR) signaling pathway - cell viability counter screen (AID 743221; active means well fitted cell-killing curve with a large enough effect in the repeat runs, not every such curve was filed as active; inconclusive means weak or mixed curves, or effect the other way; inactive means no such curve, though single readings can be large or run the other way; further: potency means the concentration at half of the fitted maximal effect; nearly all actives have a fitted effect of over 50% in size); conditions: FXR-bla HEK293T viability, CellTiter-Glo luminescence, 16 h; activity change, negative = cytotoxicity: at 62.6 µM (top of the series)
How it was run: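 GeneBLAzer FXR-UAS-bla HEK 293T cells, compound plus chenodeoxycholic acid (50 uM final), 16 h at 37 C. CellTiter-Glo added to the same wells after the beta-lactamase read; luminescence read after 30 min at room temperature as viability.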

[10] = target: Vitamin D3 receptor (Homo sapiens) (UniProt P11473); experiment: qHTS assay to identify small molecule agonists of the vitamin D receptor (VDR) signaling pathway (AID 743222); conditions: HEK293T VDR-UAS-bla, beta-lactamase FRET ratio, 16 h; activation: at 63.5 µM (top of the series) unless noted; further: potency means the concentration at half of the fitted maximal effect
Chain of UniProt P11473 (P11473 whole entry, looked up): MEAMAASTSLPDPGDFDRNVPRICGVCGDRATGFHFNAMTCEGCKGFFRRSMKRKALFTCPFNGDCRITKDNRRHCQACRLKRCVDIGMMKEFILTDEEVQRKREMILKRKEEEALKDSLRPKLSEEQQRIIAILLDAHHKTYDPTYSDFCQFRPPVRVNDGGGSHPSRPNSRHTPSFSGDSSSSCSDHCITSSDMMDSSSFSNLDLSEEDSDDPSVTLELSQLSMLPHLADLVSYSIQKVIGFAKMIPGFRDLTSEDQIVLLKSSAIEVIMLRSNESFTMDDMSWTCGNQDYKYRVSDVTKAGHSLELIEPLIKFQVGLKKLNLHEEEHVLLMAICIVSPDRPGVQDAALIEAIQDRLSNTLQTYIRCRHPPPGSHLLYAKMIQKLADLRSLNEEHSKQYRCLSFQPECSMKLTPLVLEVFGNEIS
How it was run: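 VDR-bla cells were seeded, left 4 h, treated with compounds in DMSO for 16 h, incubated 2 h at RT with B/G FRET substrate, and read for fluorescence.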

[11] = target: Vitamin D3 receptor (Homo sapiens) (UniProt P11473); experiment: qHTS assay to identify small molecule antagonists of the vitamin D receptor (VDR) signaling pathway (AID 743223; active means well fitted inhibition curve with a large enough effect in the signal ratio in the repeat runs, not every such curve was filed as active; inconclusive means weak or mixed curves, or effect the other way; inactive means no such curve, though single readings can be large or run the other way; the % refers to the signal ratio; further: potency means the concentration at half of the fitted maximal effect); conditions: VDR-UAS-bla HEK293T, beta-lactamase FRET ratio, 16 h; activity change, negative = inhibition: at 61 µM (top of the series) unless noted
How it was run: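 VDR-bla cells were treated with compound plus 3 nM final 1alpha,25-dihydroxyvitamin D3 for 16 h at 37C. Beta-lactamase reporter read by B/G FRET substrate fluorescence after 2 h at room temperature. qHTS format.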

[12] = qHTS assay for small molecule agonists of the antioxidant response element (ARE) signaling pathway (AID 743202; active means well fitted activation curve with a large enough effect in the signal ratio in the repeat runs, not every such curve was filed as active; inconclusive means weak or mixed curves, or effect the other way; inactive means no such curve, though single readings can be large or run the other way; the % refers to the signal ratio; further: potency means the concentration at half of the fitted maximal effect); conditions: HepG2 ARE-bla reporter, beta-lactamase FRET, 16 h; activation: at 73.3 µM (top of the series) unless noted
How it was run: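 Quantitative high-throughput format in HepG2 cells bearing an integrated ARE-beta-lactamase reporter. Compound exposure lasted 16 h at 37 C, and fluorescence was read 2 h after adding LiveBLAzer B/G substrate at room temperature.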

[13] = qHTS assay for small molecule activators of the heat shock response signaling pathway (AID 743210; active means well fitted activation curve with a large enough effect in the signal ratio in the repeat runs, with a control signal flat, not every such curve was filed as active; inconclusive means weak or mixed curves; the % refers to the signal ratio; further: potency means the concentration at half of the fitted maximal effect); conditions: HeLa HSE-bla reporter, beta-lactamase ratio, 5 h; activation: at 62.6 µM (top of the series)
How it was run: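 HeLa HSE-bla cells, overnight plating; cpd in DMSO 5 h, 37 C; LiveBLAzer B/G FRET substrate 2.5 h RT; fluorescence intensity read.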

[14] = target: Peroxisome proliferator-activated receptor delta (Homo sapiens) (UniProt Q03181); experiment: qHTS assay to identify small molecule agonists of the peroxisome proliferator-activated receptor delta (PPARd) signaling pathway (AID 743212); conditions: HEK293H PPARd-UAS-bla, beta-lactamase FRET ratio, 17 h; further: on the % scale 0 is the no-effect control and ±100 the full control effect
Chain of UniProt Q03181 (Q03181 whole entry, looked up): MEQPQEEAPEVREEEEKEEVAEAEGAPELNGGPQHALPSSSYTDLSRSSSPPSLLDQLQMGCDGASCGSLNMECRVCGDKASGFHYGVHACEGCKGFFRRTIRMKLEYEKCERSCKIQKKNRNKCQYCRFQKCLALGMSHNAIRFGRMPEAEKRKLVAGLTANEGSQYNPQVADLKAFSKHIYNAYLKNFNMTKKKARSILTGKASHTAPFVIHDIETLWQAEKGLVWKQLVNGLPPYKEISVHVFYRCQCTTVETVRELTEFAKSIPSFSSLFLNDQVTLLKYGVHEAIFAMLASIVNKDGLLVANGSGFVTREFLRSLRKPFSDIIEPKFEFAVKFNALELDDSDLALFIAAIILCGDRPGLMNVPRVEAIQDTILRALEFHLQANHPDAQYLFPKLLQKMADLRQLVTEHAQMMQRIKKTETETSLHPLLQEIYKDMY
How it was run: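 HEK293H PPARd-bla cells; 5 h preincubation 37 C/5% CO2; compound (DMSO) 37 C; LiveBLAzer B/G FRET substrate 2 h RT; fluorescence intensity.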

[15] = target: Bile acid receptor (Homo sapiens) (UniProt Q96RI1); experiment: qHTS assay to identify small molecule agonists of the farnesoid-X-receptor (FXR) signaling pathway (AID 743220; active means well fitted activation curve with a large enough effect in the signal ratio in the repeat runs, not every such curve was filed as active; inconclusive means weak or mixed curves, or effect the other way; the % refers to the signal ratio; further: potency means the concentration at half of the fitted maximal effect); conditions: HEK293T FXR-UAS-bla, beta-lactamase FRET ratio, 16 h; activation: at 62.6 µM (top of the series) unless noted
How it was run: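 Beta-lactamase reporter under UAS control in GeneBLAzer FXR HEK 293T cells (5000/well) measured with LiveBLAzer FRET substrate after 2 h at room temperature. Compound exposure lasted 16 h at 37C.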

[16] = target: Peroxisome proliferator-activated receptor delta (Homo sapiens) (UniProt Q03181); experiment: qHTS assay to identify small molecule antagonists of the peroxisome proliferator-activated receptor delta (PPARd) signaling pathway (AID 743215; active means well fitted inhibition curve with a large enough effect in the signal ratio in the repeat runs, not every such curve was filed as active; inconclusive means weak or mixed curves, or effect the other way; inactive means no such curve, though single readings can be large or run the other way; the % refers to the signal ratio;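 further: cells stimulated with agonist L165041 at 300 nM final during compound exposure; on the % scale 0 is the no-effect control and ±100 the full control effect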); conditions: HEK293H PPARd-UAS-bla, beta-lactamase FRET ratio, antagonist, 17 h; ratio activity, negative = inhibition: at 62 µM (top of the series) unless noted
How it was run: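 With L165041 present at 300 nM final, compounds were incubated 17 h at 37 C on PPARd UAS-bla HEK293H cells. A FRET-based beta-lactamase substrate was then applied for 2 h at room temperature and fluorescence intensity recorded.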

[17] = ratio activity, negative = inhibition: at 62.6 µM (top of the series) unless noted
[18] = activity change, negative = inhibition: at 62.6 µM (top of the series) unless noted
Tags describe the fitted curve by direction and shape or compound fluorescence and quenching.

Nc1c2ccccc2nc2ccccc12
Potency [1]: inconclusive: 26.8 µM [fluorescent, partial curve, poor fit] and inconclusive: 38.4 µM [fluorescent, partial curve]
Potency [2, 17]: inconclusive: 21.6 µM [fluorescent, partial curve] and inconclusive: 21.1 µM [fluorescent, partial curve]
Potency [3]: inconclusive: 2.16 µM [cytotoxic, full curve, poor fit]
Potency [4]: active: 24 µM and inconclusive: 33.5 µM [cytotoxic, single point]
Potency [5]: inconclusive: 12.1 µM [cytotoxic, partial curve, poor fit] and inconclusive: 33.5 µM [cytotoxic, single point]
Potency [6]: inconclusive: 54.2 µM [cytotoxic, single point]
Potency [7, 18]: inconclusive: 21.6 µM and inconclusive: 29.8 µM [single point]
Potency [8]: inconclusive: 24.2 µM [cytotoxic, single point]
Potency [9]: inconclusive: 9.64 µM [falling, partial curve, poor fit]
Potency [10]: inconclusive: 17.1 µM [fluorescent, full curve] and inconclusive: 21.1 µM [fluorescent, partial curve]
Potency [11]: inconclusive: 19.2 µM and inconclusive: 19 µM [partial curve]

c1ccc2cc(Nc3ccc(Nc4ccc5ccccc5c4)cc3)ccc2c1
Potency [1]: active: 22 µM and inconclusive: 61.7 µM [activator, partial curve, poor fit]
Potency [2, 17]: inconclusive: 62 µM [fluorescent, single point]
ratio activity, negative = inhibition [2, 17]: inconclusive: 12.9%
Potency [12]: inconclusive: 69 µM [rising, single point]
Potency [13]: inconclusive: 49.3 µM [activator, single point]
activation ([14]; at 62.6 µM (top of the series)): inconclusive: 9.74%
activation ([14]; at 81.1 µM (top of the series)): inconclusive: 13%
activity change, negative = inhibition [7, 18]: inconclusive: 10.8%
activity change, negative = inhibition ([7]; at 81.1 µM (top of the series)): inactive: -4.96%
Potency [8]: inconclusive: 15.6 µM [rising, partial curve, poor fit]
Potency [15]: inconclusive: 55.3 µM [activator, partial curve, poor fit]
activation [15]: inconclusive: 7.37%
activation [10]: inconclusive: 6.74%
activity change, negative = inhibition [11]: inconclusive: -6.18%

NC(=O)c1ncn([C@@H]2O[C@H](CO)[C@@H](O)[C@H]2O)n1
activation [1]: inconclusive: -12.6%
ratio activity, negative = inhibition ([2]; at 62.6 µM (top of the series)): inactive: -32.2%
ratio activity, negative = inhibition [2, 17]: inconclusive: -44.3% [at 81.1 µM]
Potency [12]: inactive
ratio activity, negative = inhibition [16]: inconclusive: -23.4% [at 80.4 µM]

CN1C(C(=O)Nc2ccccn2)=C(O)c2ccccc2S1(=O)=O
Potency [1]: inactive
ratio activity, negative = inhibition [2, 17]: inconclusive: -3.69%
Potency [12]: inconclusive: 61.7 µM [rising, partial curve]
Potency [4]: inconclusive: 174 nM [rising, partial curve]
ratio activity, negative = inhibition [16]: inconclusive: 12.6%
activity change, negative = inhibition [7, 18]: inconclusive: -24.3% [at 81.1 µM]
activation [10]: inconclusive: -6.92%
